In PubChem BioAssay AID686978 (National Center for Advancing Translational Sciences (NCATS), 2013):
“And” between values parts separate entries of the source, which are not always exact repeats. Identical values can stand only once. In all, about 420,000 compounds went through this assay and about 64,000 (15%) were called active. This list was built around the results that the source calls inconclusive (neither active nor inactive); the mix of calls is not that of the screen. Calls follow the shape of the dose curve; as a rule, active = well fitted inhibition curve with a large enough effect; inconclusive = small, poorly fitted or top-dose-only effect; inactive = flat fitted curve, though single readings scatter. No potency is given beside an inconclusive call; the fits are too rough.
% is scaled to controls: 0 for no effect and ±100 for the full control effect; potency is read from the fitted curve at half-maximal effect; tags tell the direction and shape of the fitted curve.

Assay: qHTS for Inhibitors of human tyrosyl-DNA phosphodiesterase 1 (TDP1): qHTS in cells in absence of CPT; also: nearly all actives have a fitted effect of over 55% in size
Settings: DT40 Tdp1-/- hTDP1 cells, no CPT, ATP luminescence, 48 h; activity change, negative = growth inhibition: at 46.2 µM (top of the series) unless noted
Outline: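 DT40 Tdp1-/-;hTDP1 cells, no CPT (DMSO vehicle only), 400 cells/well; compounds pin-transferred; ≥48 hr, 37 °C; CellTiter-Glo 30 min RT dark, luminescence read.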
For `COC(=O)c1nc(N)sc1-c1ccc(Cl)c(Cl)c1`, the Potency was inconclusive [inhibitor, single point]. With `CCOc1ccccc1Nc1nc2ccccc2n1C(C)C` the Potency was inconclusive [inhibitor, single point]. With `O=S(=O)(Cc1nnnn1-c1ccccc1)c1ccccc1` the “activity change, negative = growth inhibition” value was inactive: 30.9%. With `CCCCN(CCCC)S(=O)(=O)c1ccc(C(=O)Nc2sc3c(c2C(N)=O)CCN(CC)C3)cc1` the Potency was inconclusive [inhibitor, partial curve]. For `COc1cccc(C(=O)C(C#N)=C(SC)SC)c1`, the Potency was active: 2.31 µM. With `CNc1nc(NC#N)nc(SC)n1` the Potency was inconclusive [inhibitor, partial curve, poor fit]. For `Cc1cc(Nc2ccccc2Cl)c2ccccc2n1`, the Potency was active: 13 µM. For `COc1ccc(/C=C2\SC(N3CCc4ccccc4C3)=NC2=O)cc1OC`, the Potency was inconclusive [inhibitor, partial curve]. For `CCN1CCc2c(sc(NC(=O)Cc3ccccc3)c2C(N)=O)C1`, the “activity change, negative = growth inhibition” value was inactive: -28.4%. With `CCOC(=O)C1(c2ccccc2)CCCNC1=O` (configuration not stated) the Potency was inconclusive [inhibitor, partial curve, poor fit]. With `CC(=O)c1ccc(NC(=O)CSc2nc(=O)n3cccc(C)c3n2)cc1` the “activity change, negative = growth inhibition” value was inactive: -29.3%. With `O=C1CCC(=O)N1c1ccc(CSc2nc3ccccc3[nH]2)cc1` the Potency was inconclusive [inhibitor, single point]. For `C=CCc1ccc(OCCCCN2CC(C)CC(C)C2)c(OC)c1` (configuration not stated), the Potency was active: 20.6 µM. For `COc1cccc(C(=O)Nc2nc(-c3ccccc3)c(-c3ccccc3)o2)c1`, the Potency was inconclusive [inhibitor, single point]. For `O=C(O)CCC(=O)Nc1ccc(-c2nc3ccc(C(=O)c4ccccc4)cc3[nH]2)cc1`, the “activity change, negative = growth inhibition” value was inactive: 3.78%. In the case of `CC(=O)OCC1OC(n2ccc(=O)[nH]c2=O)C(O)C1O` (configuration not stated), the “activity change, negative = growth inhibition” value is reported as inactive: -21%. For `O=C(c1sc2cc([N+](=O)[O-])ccc2c1Cl)N1CCCCC1`, the Potency was inconclusive [inhibitor, single point]. In the case of `CCOc1ccccc1CNC(=O)CCCn1nc(C)c2sc3ccccc3c2c1=O`, the Potency is reported as inconclusive [inhibitor, single point]. For `Cc1cccc(N2CCN(C(=O)CCNC(=O)Cn3ccc4ccccc4c3=O)CC2)c1C`, the Potency was active: 14.6 µM. With `CC(C)CC(N)c1csc(NC(=O)Nc2ccccc2Cc2ccccc2)n1` (configuration not stated) the Potency was active: 11.6 µM. In the case of `COCCCNC(=O)C1CC(=O)OC1c1ccc(OC)c(OC)c1` (configuration not stated), the “activity change, negative = growth inhibition” value is reported as inactive: -22.5%. With `Cc1cccc(OCCOC(=O)CN2C(=O)NC3(CCCC3)C2=O)c1` the Potency was inconclusive [inhibitor, single point]. In the case of `O=C(CN1C(=O)NC2(CCCCCC2)C1=O)N1CCC(Cc2ccccc2)CC1`, the Potency is reported as active: 16.4 µM. With `CC(C)C1C(=O)N(Cc2cn(Cc3ccco3)nn2)CCS(=O)(=O)N1Cc1ccc(-c2cccc(N(C)C)c2)cc1` (configuration not stated) the Potency was active: 16.4 µM. For `CC12CN3CC(C)(CN(C1)C3c1ccc(Cl)cc1Cl)C2O` (configuration not stated), the activity change, negative = growth inhibition was inconclusive: -32.7% [inhibitor]. With `COc1ccccc1NC(=O)Cn1c(=O)n(CCc2ccccc2)c(=O)c2sc3ccccc3c21` the Potency was inconclusive [inhibitor, partial curve]. For `Cc1ccc(-c2nc(=N)sn2Cc2ccccc2)cc1`, the Potency was active: 4.47 µM. With `CC(=O)c1c(C)[nH]c(C(=O)CSc2ncnc3sc(-c4ccccc4)cc23)c1C` the Potency was inconclusive [inhibitor, single point]. With `O=C(NCC(O)CO)c1csc(Nc2cccc3ccccc23)n1` (configuration not stated) the Potency was inconclusive [inhibitor, single point]. With `CCOC(=O)/C=C1\CN(Cc2cc(OC)c(OC)c(OC)c2)S(=O)(=O)c2ccccc21` the Potency was active: 3.55 µM and active: 6.51 µM. In the case of `O=C1C=CC2=C3c4cc(O)c(O)cc4CC3(O)COC2=C1O` (configuration not stated), the Potency is reported as inconclusive [inhibitor, single point]. For `CC1=C(C(=O)Nc2cccc(Cl)c2)C2(CCCCCC2)OC1=O`, the Potency was inconclusive [inhibitor, single point]. For `Cc1nc2c([nH]1)c(=O)n(C)c(=O)n2Cc1ccco1`, the Potency was “inactive”. With `Cc1cccc(CN2CCN(c3ccccn3)CC2)c1` the “activity change, negative = growth inhibition” value was inactive: -6.66%. In the case of `COc1ccc(NC(=O)CCCC(=O)c2ccccc2)cc1`, the “activity change, negative = growth inhibition” value is reported as inactive: -6.59%. With `O=C(Nc1ccc2c(c1)OCCO2)C1CCCC1` the “activity change, negative = growth inhibition” value was inactive: -24.7%. For `CC(C)C[C@@H]1O[C@H](CCc2ccccc2)Cc2[nH][nH]c(=O)c21`, the Potency was inconclusive [inhibitor, single point]. For `CN(C)c1ccc(CNC(=O)Cn2c(=O)oc3cc(S(=O)(=O)NCc4ccccc4)ccc32)cc1`, the Potency was inconclusive [inhibitor, partial curve]. For `CCC1CN(C(=O)N2CCC(C(=O)NCCCc3ccccc3)CC2)c2ccccc2O1` (configuration not stated), the Potency was inconclusive [inhibitor, single point]. For `NS(=O)(=O)c1ccc(NC(=O)COC(=O)c2ccco2)cc1`, the “activity change, negative = growth inhibition” value was inactive: 21.8%. For `O=C(O)COc1ccc(/C=N/n2c(COc3ccccc3)nc3ccccc3c2=O)cc1`, the Potency was inconclusive [inhibitor, single point]. With `Cc1cccc(-c2noc(CCC(=O)Nc3ccccc3)n2)c1` the Potency was inconclusive [inhibitor, partial curve, poor fit]. With `COc1ccc(NC(=O)c2cc3ccc(O)cc3o/c2=N\O)cc1` the Potency was inconclusive [inhibitor, single point]. With `NS(=O)(=O)c1ccc(CNC(=O)/C=C/c2ccccc2)cc1` the “activity change, negative = growth inhibition” value was inactive: -4.72%. In the case of `O=C(Nc1ccc(Cl)c(S(=O)(=O)Nc2ccccc2Cl)c1)c1cccs1`, the Potency is reported as inconclusive [inhibitor, single point]. For `Cc1ccccc1OCC(=O)Nc1ccc([N+](=O)[O-])cc1`, the Potency was inconclusive [inhibitor, single point]. With `CCCC12CN3CC(C)(CN(C1)C3c1cn(CC)c3ccccc13)C2=O` (configuration not stated) the Potency was inconclusive [inhibitor, single point].
